Data from the supplement of paper PMC11417369.
This is one part of the list.

Test system: PfAP2-HC AP2 domain (GST-tagged)
Experiment: gcPBM binding intensity (ln(normalized median fluorescence intensity)); higher = stronger DNA binding
How it was run: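 In this array assay, P. falciparum DNA-binding domains with a GST tag, expressed in E. coli, were applied for 1 h to primer-extended double-stranded 36-bp intergenic genomic probes and negative controls on an Agilent 4 × 180k array. Bound protein was visualised with Alexa488 anti-GST antibody at 488 nm. Binding intensity is the highest Masliner-normalised natural-log median intensity across replicate spots of either probe orientation.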

Row | Sequence | gcPBM binding intensity (ln)
1 | TTAGTAGTATTATGTAGTACATAATTATCATATCAT [XGTACX_site817] | 9.64
2 | AACCCAAAATAATTATGTACATATTTTTAAATATAT [XGTACX_site6487] | 9.73
3 | ATAATCCTTGGACACACACACACACTAGTAAATAAA [CACACA_site4423] | 11.3
4 | TTTGTGTATATAACAGTGCAATATTATAAATATAAA [GTGCAC_site9750] | 9.65
5 | GCAAAGCACAAATATGCATGTAGATATAGAATAATG [TGCATGCA_site382] | 9.59
6 | AAAAAAGAAAAAAAGTGTACAATATTTATTACATAT [XGTACX_site2277] | 9.67
7 | TTTTTTCTTTTTATGTGTACTTATTTTATTTAATAA [XGTACX_site1080] | 9.76
8 | TATATTTCATTATATTGTACAAAATATATATATTAT [XGTACX_site4644] | 9.52
9 | CATTATATATATTACTAAAAATTTTACCCCTTAGCT [CACACA_negctrl_site302] | 9.41
10 | ATGTATATAAATATACGTACATAAATATAAGTATAG [XGTACX_site7155] | 9.67
11 | ATACATGAATAAATATGTACACATATAAAAACATAT [XGTACX_site2740] | 9.85
12 | AACACGCGCAGACACACACACACACGCACATATATA [CACACA_site7104] | 10.9
13 | TTTTTTTTCTTTTTTTTAAGAAATAAATAAATAATT [XGTACX_negctrl_site137] | 8.98
14 | TTTTAACAAAACTAAATAATCATATATATAAGATAT [GTGCAC_negctrl_site298] | 9.26
15 | CATTTCTATATAAGCACACACGTGGAATTTTTTTTT [CACACA_site5537] | 9.85
16 | ATTATTTGAACAACAAAAAAAAAGAAAAGAAAAGAA [CACACA_negctrl_site1031] | 9.51
17 | AAATCGTAATATATTTGTACTTATTTGAAAAATCCA [XGTACX_site8141] | 9.49
18 | TATTTATAAATATGTGTGCACAATTTATTTTATAAT | 9.74
19 | TTATTTCTAACATGATGTACTTTTATATTATATAAT [XGTACX_site3574] | 9.57
20 | TTTTTTTTATATATCTGTACATATATATATATATAT [XGTACX_site8280] | 9.84
21 | TATTTTCAAAATGTTGTACACACAAAAAAAAAAAAA [CACACA_site8437] | 9.73
22 | ATATACTTTTCAATGTGTACTTATGAATATATATGT [XGTACX_site7972] | 9.69
23 | ATATATATATATATATGTACATACATATTGTTTGGT [XGTACX_site2284] | 9.78
24 | CAAAATATTTTTTCCTGTACATAATTCCTATTTCAC [XGTACX_site3590] | 9.59
25 | ATATAATAATATGGTTGTACATAAATAACACATGAA [XGTACX_site6592] | 9.77
